Measured values from PubChem BioAssay AID2675 (National Center for Advancing Translational Sciences (NCATS), 2010).
The whole screen tested about 280,000 compounds, of which about 100 (0.036%) were called active. This list was built around the results that the source calls inconclusive (neither active nor inactive); the mix of calls is not that of the screen. The call rests on the fitted dose curve; in most records, active means well fitted inhibition curve with a large enough effect in the signal ratio, with a control signal flat (not every such curve was filed as active); inconclusive means small, poorly fitted or top-dose-only effect, or effect the other way, or a change in a side signal; inactive means no such curve, though single readings can be large or run the other way; the % refers to the signal ratio. Potencies of inconclusive entries are doubtful fits and often do not repeat. A note “side channel” means that the fit belongs to a control or component signal, not to the main read-out.

Target: Muscleblind-like protein 1 (Homo sapiens) (UniProt Q9NR56)
Test: qHTS Assay for Inhibitors of MBNL1-poly(CUG) RNA binding
Details: TR-FRET MBNL1-His/biotin-(CUG)12 binding, 665/545 ratio; activity change, negative = inhibition: at 57.5 µM (top of the series)
Outline: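 TR-FRET between His-tagged MBNL1 and biotin-(CUG)12 RNA, detected with Tb anti-His antibody (0.055 ng/ul) and streptavidin-XL665 (5 nM), 60 min at room temperature. Compounds titrated 92 nM to 58 uM; 665/545 nm ratio normalized to buffer and complex controls.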
On the % scale 0 is the no-effect control and ±100 the full control effect; potency means the concentration at half of the fitted maximal effect; tags describe the fitted curve by direction and shape or compound fluorescence and quenching.

UniProt Q9NR56, sequence (Q9NR56 whole entry, looked up): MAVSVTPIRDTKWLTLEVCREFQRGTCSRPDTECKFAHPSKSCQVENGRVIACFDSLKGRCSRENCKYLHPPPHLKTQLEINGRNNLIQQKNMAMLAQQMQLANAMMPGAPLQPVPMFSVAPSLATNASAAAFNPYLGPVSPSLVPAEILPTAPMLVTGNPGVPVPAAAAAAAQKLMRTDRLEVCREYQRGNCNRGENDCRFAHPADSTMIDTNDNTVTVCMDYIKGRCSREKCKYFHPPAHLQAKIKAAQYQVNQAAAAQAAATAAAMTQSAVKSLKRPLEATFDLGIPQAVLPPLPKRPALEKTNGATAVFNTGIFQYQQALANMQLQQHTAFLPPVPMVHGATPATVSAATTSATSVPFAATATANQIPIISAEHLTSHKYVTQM

SMILES | activity change, negative = inhibition | Potency
Cc1ccc(C)c(S(=O)(=O)Nc2ccccc2C(=O)Nc2cc(C)on2)c1 | inactive: 1.73% | 
CN=c1scc(C)n1/N=C/c1ccc(O)c(O)c1O |  | inconclusive: 25.1 µM [quencher, side channel, partial curve]
CCOc1ncccc1C(=O)OCC(=O)Nc1cc(C(=O)OC)ccc1C(=O)OC | inactive: -5.77% | 
COc1cc(/C=N/Nc2nc3ccccc3[nH]2)cc(Br)c1OCC(=O)N(C)C |  | inconclusive: 17.8 µM [quencher, side channel, partial curve]
Cc1ccc(C)c(C(=O)COC(=O)c2cc(Cl)nc3ccccc23)c1 |  | inconclusive: 14.1 µM [quencher, side channel, partial curve]
COc1cc(Br)cc(/C=N/N(CCO)C2=NS(=O)(=O)c3ccccc32)c1OC | inactive: 2.89% | 
Cc1cc(/C=C(\C#N)C(=O)NC2CCCCCC2)c(C)n1C |  | inconclusive: 0.251 µM [fluorescent, side channel, full curve, poor fit]
Cc1csc(SCCN2C(=O)c3ccccc3C2=O)n1 |  | inconclusive: 20 µM [quencher, side channel, single point]
COc1ccc(/C=N/O)cc1COc1ccc(NC(C)=O)cc1 |  | inconclusive: 44.7 µM [quencher, side channel, single point]
Cc1sc2nc(CN(C(=O)NC3CCCCC3)C3CCCC3)[nH]c(=O)c2c1C |  | inconclusive: 7.08 µM [quencher, side channel, single point]
CCNc1nc(NCC)nc(N(C)/N=C/c2ccco2)n1 | inactive: 3.67% | 
O=C(CCNS(=O)(=O)c1ccc(OC(F)(F)F)cc1)N1CCN(C/C=C/c2ccccc2)CC1 |  | inconclusive: 100 µM [inhibitor, single point]
Cc1cnn(-c2nc(-c3cccs3)cc(C(F)(F)F)n2)c1 |  | inconclusive: 25.1 µM [quencher, side channel, single point]
Cc1ccccc1NC(=S)NCC(c1cccnc1)N(C)C (stereo not drawn) | inactive: -5.75% | 
N#CCCN(C(=O)COc1ccc(C#N)cc1)c1ccc(F)cc1 | inactive: -0.157% | 
Cc1ccc(C(=O)CC2(O)C(=O)N(Cc3ccccc3)c3ccccc32)o1 (stereo not drawn) | inactive: -2.02% | 
O=C(O)c1cccc(NC(=O)c2cccc(S(=O)(=O)Nc3cccc([N+](=O)[O-])c3)c2)c1 |  | inconclusive: 31.6 µM [quencher, side channel, single point]
O=S(=O)([N-]c1nc2ccccc2nc1-[n+]1ccccc1)c1ccc(Cl)cc1 |  | inconclusive: 15.8 µM [quencher, partial curve]
